The antibiotic and cytotoxicity screens of Wong et al. (2023)
Some of the results follow.

What was measured:
HSkMC = human skeletal muscle cells; experiment: cytotoxicity call (relative viability < 0.9); details: 10 µM
HepG2 = experiment: cytotoxicity call (relative viability < 0.9); details: 10 µM
S. aureus RN4220 = experiment: growth inhibition call (relative growth <= 0.2); details: 50 µM

SMILES	cytotoxicity call (HSkMC)	cytotoxicity call (HepG2)	growth inhibition call (S. aureus RN4220)
COc1ccc(CN(C)C[C@H]2OCCCC[C@H](C)Oc3ccc(NC(=O)NC(C)C)cc3C(=O)N([C@H](C)CO)C[C@@H]2C)cc1	inactive	inactive	inactive
C[C@H]1CN([C@@H](C)CO)C(=O)c2cc(NC(=O)CCC(F)(F)F)ccc2O[C@H]1CN(C)C(=O)Nc1ccc(C(F)(F)F)cc1	inactive	active	inactive
C[C@H](CO)N1C[C@H](C)[C@H](CN(C)Cc2ccc3c(c2)OCO3)Oc2c(NS(C)(=O)=O)cccc2C1=O	inactive	inactive	inactive
COc1cccc(C(=O)Nc2ccc3c(c2)C(=O)N(C)[C@@H]2CC[C@@H](CC(=O)NCC4CC4)O[C@@H]2CO3)c1	inactive	inactive	inactive
C[C@@H]1CN([C@@H](C)CO)C(=O)Cc2cc(NC(=O)Nc3ccc(C(F)(F)F)cc3)ccc2O[C@@H]1CN(C)C(=O)Nc1ccc(F)cc1	active	active	inactive
Cc1noc(C)c1S(=O)(=O)Nc1ccc2c(c1)C(=O)N([C@@H](C)CO)C[C@H](C)[C@@H](CN(C)Cc1ccccc1)OCCCC[C@H](C)O2	inactive	inactive	inactive
C[C@H]1CN([C@@H](C)CO)C(=O)Cc2cc(NS(=O)(=O)c3cccs3)ccc2O[C@H]1CN(C)C(=O)Nc1cccc2ccccc12	inactive	inactive	inactive
C[C@H]1CN([C@@H](C)CO)C(=O)c2cccc(NC(=O)c3cnccn3)c2O[C@@H]1CN(C)CC1CCCCC1	inactive	inactive	inactive
CNC(=O)CN1CCOC[C@@]2(C1)CN(C(=O)c1ccn[nH]1)CCO2	inactive	inactive	inactive
C[C@H]1CN([C@@H](C)CO)C(=O)c2cc(-c3cccc(C(=O)N(C)C)c3)cnc2O[C@H]1CN(C)S(=O)(=O)c1cccc(F)c1	inactive	inactive	inactive
C[C@@H]1CN([C@H](C)CO)C(=O)c2cc(NC(=O)CCCN(C)C)ccc2O[C@@H]1CN(C)C(=O)Nc1ccccc1	inactive	inactive	inactive
C[C@H]1CN([C@@H](C)CO)C(=O)c2cccc(NC(=O)C3CC3)c2O[C@@H]1CN(C)S(=O)(=O)c1cccs1	inactive	inactive	inactive
CN(C)CCCNC(=O)C[C@H]1C=C[C@H](NC(=O)Cc2cccnc2)[C@H](CO)O1	inactive	inactive	inactive
C[C@H]1CN([C@@H](C)CO)S(=O)(=O)c2ccc(-c3ccncc3)cc2O[C@@H]1CN(C)C(=O)c1ccc2c(c1)OCO2	inactive	inactive	inactive
COc1ccc(-n2cc(C(=O)NO)nn2)cc1	active	active	inactive
C[C@H](CO)N1C[C@H](C)[C@@H](CN(C)CC2CC2)Oc2c(NS(=O)(=O)c3ccc(F)cc3)cccc2C1=O	inactive	inactive	inactive
C[C@@H]1CCCCO[C@H](CN(C)C(=O)C2CCCCC2)[C@H](C)CN([C@@H](C)CO)C(=O)c2cc(NS(=O)(=O)c3ccc(Cl)cc3)ccc2O1	active	inactive	inactive
Nc1ccc(S(N)(=O)=O)cc1	inactive	inactive	inactive
C[C@H]1CN([C@@H](C)CO)C(=O)c2cccc(NC(=O)Nc3cccc4ccccc34)c2O[C@@H]1CN(C)S(=O)(=O)c1ccc(Cl)cc1	inactive	inactive	inactive
O=C(O)Cn1ccccc1=O	inactive	inactive	inactive
C[C@H](CO)N1C[C@H](C)[C@@H](CN(C)S(=O)(=O)c2ccc(-c3ccccc3)cc2)OCc2cnnn2CCCC1=O	inactive	inactive	inactive

SMILES	cytotoxicity call (HSkMC)	cytotoxicity call (HepG2)	growth inhibition call (S. aureus RN4220)
N[C@H]1CCCN(Cc2ccc(F)cc2)C1	inactive	inactive	inactive
CC(C)N(CCCNC(=O)Nc1ccc(C(C)(C)C)cc1)C[C@H]1O[C@@H](n2ccc3c(N)ncnc32)[C@H](O)[C@@H]1O	inactive	inactive	inactive
Cc1noc(C)c1NC(=O)Nc1ccc2c(c1)C(=O)N([C@H](C)CO)C[C@@H](C)[C@@H](CN(C)C(=O)Nc1ccc(C(F)(F)F)cc1)OCCCC[C@@H](C)O2	inactive	inactive	inactive
COc1ccc(CN(C)C[C@@H]2Oc3ccc(NC(=O)Nc4ccc(C(F)(F)F)cc4)cc3C(=O)N([C@@H](C)CO)C[C@@H]2C)cc1	active	active	inactive
O[C@@H]1[C@@H](O)[C@H](OC/C=C/c2ccccc2)O[C@H](CO[C@@H]2OC[C@@H](O)[C@@H](O)[C@@H]2O)[C@H]1O	inactive	inactive	inactive
C[C@@H]1CN([C@H](C)CO)C(=O)c2cc(NC(=O)NC3CCCCC3)ccc2O[C@@H](C)CCCCO[C@H]1CN(C)Cc1ccc(C(=O)O)cc1	inactive	inactive	inactive
C=CCC[C@H](Cc1ccc(F)cc1)C(=O)OC[C@@H](NC(=O)[C@@H](CC=C)CC(=O)N(CCO)Cc1ccccc1)C(C)(C)C	inactive	inactive	inactive
C[C@H]1CN([C@@H](C)CO)C(=O)Cc2cc(NC(=O)Cc3ccccc3)ccc2O[C@H]1CN(C)Cc1ccc(-c2ccccc2)cc1	inactive	active	inactive
Cc1ccc(S(=O)(=O)N(C)C[C@@H]2Oc3c(NS(=O)(=O)c4ccc(F)cc4)cccc3C(=O)N([C@H](C)CO)C[C@@H]2C)cc1	inactive	inactive	inactive
O=C1CN(c2ccccc2)C=NN1	inactive	inactive	inactive
Nc1cc(C(=O)N2CCCC2)ccn1	inactive	inactive	inactive
C[C@H](CO)N1C[C@H](C)[C@H](CN(C)Cc2ccccc2)Oc2ccc(NC(=O)Nc3cccc4ccccc34)cc2CC1=O	inactive	active	inactive
C[C@H](CO)N1C[C@H](C)[C@H](CN(C)S(=O)(=O)c2cn(C)cn2)OCCCC[C@H](C)Oc2ccc(NC(=O)CCCN(C)C)cc2C1=O	inactive	inactive	inactive
C[C@@H]1CN([C@H](C)CO)C(=O)CCCn2nncc2CO[C@H]1CN(C)S(=O)(=O)c1ccc(-c2ccccc2)cc1	inactive	inactive	inactive
COc1ccc([Si](C)(C)[C@@H]2[C@@H](CCn3cc(CCO)nn3)O[C@]3(C(=O)N(Cc4cccc(N5C(=O)c6cccc7cccc5c67)c4)c4ccccc43)[C@H]2C)cc1	active	active	inactive
COc1ccc(S(=O)(=O)N(C)C[C@H]2Oc3ccc(NC(=O)CCN4CCOCC4)cc3CC(=O)N([C@H](C)CO)C[C@@H]2C)cc1	inactive	inactive	inactive
Cc1ccc(S(=O)(=O)Nc2ccc3c(c2)C(=O)N([C@H](C)CO)C[C@H](C)[C@@H](CN(C)S(=O)(=O)c2ccccc2)O3)cc1	inactive	inactive	inactive
Cc1ccc(S(=O)(=O)N2CCOCC2)cc1NC(=O)CN1C(=O)CN(C)C1=O	inactive	inactive	inactive
C[C@H](CO)N1C[C@H](C)[C@H](CN(C)C(=O)Nc2ccc(F)cc2)OCCCC[C@H](C)Oc2ccc(NC(=O)Nc3ccc(C(F)(F)F)cc3)cc2C1=O	inactive	inactive	inactive
O=C(O)[C@]1(O)C[C@@H](O)[C@@H](O)[C@H](O)C1	inactive	inactive	inactive
O=C(O)C(O)C(O)C(O)C(O)C(=O)O (stereo unspecified)	inactive	inactive	inactive
